Data on 40 compounds can be found in the antibiotic and cytotoxicity screens of Wong et al. (2023).

This is one part of the list.

The assay deals with HepG2. As to the kind of experiment: cytotoxicity call (relative viability < 0.9). Conditions: 10 µM.
Regarding `COc1ccc(NC(=O)Nc2ccc3c(c2)C(=O)N([C@@H](C)CO)C[C@@H](C)[C@H](CN(C)S(=O)(=O)c2cn(C)cn2)O3)cc1`, the cytotoxicity call was “inactive”. The same measure for `CC(C)N1CC[C@@H](CN(C)Cc2ccc(C(=O)O)cc2)Oc2cc(-c3ccc(C(F)(F)F)cc3)ccc2S1(=O)=O`: “inactive”; for `COCC#Cc1ccc2c(c1)O[C@@H](CN(C)S(=O)(=O)c1ccc(F)cc1)[C@@H](C)CN([C@H](C)CO)S2(=O)=O`: “inactive”; for `Cc1noc(C)c1NC(=O)N(C)C[C@H]1Oc2ccc(NC(=O)CCCN(C)C)cc2C(=O)N([C@@H](C)CO)C[C@H]1C`: “inactive”.

`COCCNC(=O)C[C@@H]1C[C@@H]2c3cc(NC(=O)CN(C)C)ccc3O[C@@H]2[C@@H](CO)O1`: the cytotoxicity call is “inactive”. In the case of `CO[C@H](CN(C)C(=O)c1ccccc1F)[C@@H](C)CN([C@@H](C)CO)S(=O)(=O)c1ccc(Cl)cc1`, the cytotoxicity call was “inactive”. On to `O=C(Nc1ccccc1)C1=C[C@@H](c2ccc3c(c2)Cc2ccccc2-3)C[C@@H](OCc2ccc(CO)cc2)O1`, for which the cytotoxicity call is “inactive”. In the case of `COc1ccc(NC(=O)Nc2ccc3c(c2)C(=O)N([C@H](C)CO)C[C@H](C)[C@@H](CN(C)C(=O)Nc2ccccc2)OCCCC[C@@H](C)O3)cc1` it was “inactive”.

As to `CC(C)CNC(=O)C(=O)NC[C@H]1OCCN1S(=O)(=O)c1ccc2c(c1)OCCO2`, the cytotoxicity call was “inactive”.

With `C[C@H]1CN([C@@H](C)CO)C(=O)c2cc(NC(=O)Nc3ccc(C(F)(F)F)cc3)ccc2O[C@H]1CN(C)Cc1ccccc1`, the cytotoxicity call is “active”. In the case of `CN1CCN(C(=O)C[C@H]2CC[C@H](NC(=O)Cc3ccccn3)[C@H](CO)O2)CC1` it was “inactive”. The same measure for `CN(C)CCCNC(=O)C[C@@H]1CC[C@H]2[C@@H](COc3ccc(NC(=O)NC4CCCC4)cc3C(=O)N2C)O1`: “inactive”.

For the compound `COc1ccc(NC(=O)Nc2ccc3c(c2)CC(=O)N([C@@H](C)CO)C[C@H](C)[C@@H](CN(C)Cc2ccc(Cl)c(Cl)c2)O3)cc1`, the cytotoxicity call was “active”. In the case of `CO[C@@H]1CN(C)C(=O)c2ccc(NS(=O)(=O)c3ccccc3F)cc2OC[C@@H](C)N(S(C)(=O)=O)C[C@H]1C` it was “inactive”. For the compound `C[C@H]1CCCCO[C@@H](CN(C)S(=O)(=O)c2cccs2)[C@@H](C)CN([C@@H](C)CO)C(=O)c2cc(NC(=O)C3CCCCC3)ccc2O1`, the cytotoxicity call is “inactive”. In the case of `CNC(=O)CO[C@H]1COC2(CCN(C(=O)c3ccn(C)n3)CC2)C1` it was “inactive”; in that of `C[C@@H]1CN([C@@H](C)CO)C(=O)c2cc(/C=C/c3ccccc3)cnc2O[C@H]1CN(C)C(=O)c1cnccn1`, “inactive”; in that of `COCCCNC(=O)[C@@]1(Sc2ccc(C)cc2)CC(=O)N(C2CCCCC2)[C@@H]1c1ccc(CO)cc1I`, “inactive”. In the case of `COc1ccc(S(=O)(=O)Nc2ccc3c(c2)C(=O)N([C@@H](C)CO)C[C@H](C)[C@H](CN(C)Cc2ccc(C(F)(F)F)cc2)OCCCC[C@H](C)O3)cc1` it was “active”; in that of `CCCCCCCCCCCCCCCCCCCC(=O)N[C@H]1CC[C@@]2(C)[C@@H](C1)C[C@@H](O)[C@@H]1[C@@H]2C[C@H](O)[C@]2(C)[C@@H]([C@H](C)CCC(=O)O)CC[C@@H]12`, “inactive”. The same measure for `Cc1cc(O)c2c(c1)C(=O)c1cc(O)cc(O)c1C2=O`: “inactive”; for `C[C@H](CO)N1C[C@H](C)[C@@H](CN(C)C(=O)Cc2ccccc2)OCCCC[C@H](C)Oc2ccc(NC(=O)NC3CCCCC3)cc2C1=O`: “inactive”.

Regarding `CCC(=O)Nc1nn2c(C)nnc2s1`, the cytotoxicity call is “inactive”. The same measure for `COc1ccc(NC(=O)Nc2ccc3c(c2)CC(=O)N([C@@H](C)CO)C[C@@H](C)[C@@H](CN(C)Cc2ccc(C(F)(F)F)cc2)O3)cc1`: “active”; for `C[C@@H]1CN([C@H](C)CO)C(=O)c2cc(NC(=O)Nc3cccc4ccccc34)ccc2O[C@@H](C)CCCCO[C@@H]1CN(C)Cc1ccccc1`: “inactive”; for `CCC(=O)N1CCC[C@H](C(=O)O)C1`: “inactive”.

Turning to `C[C@@H]1CCCCO[C@@H](CN(C)CC2CCCCC2)[C@H](C)CN([C@H](C)CO)C(=O)c2cc(NC(=O)NC3CCCCC3)ccc2O1`, the cytotoxicity call was “inactive”. The same measure for `NC(=O)c1cccc(CN2CCOCC2)c1`: “inactive”.

In the case of `Clc1cccc(Cc2cn3cc(-c4ccccc4)nc3s2)c1`, the cytotoxicity call is “inactive”. In the case of `C[C@@H]1CN([C@@H](C)CO)C(=O)Cc2cc(NS(C)(=O)=O)ccc2O[C@@H]1CN(C)S(=O)(=O)c1ccccc1` it was “inactive”. For the compound `C[C@@H]1CCCCO[C@@H](CN(C)Cc2ccc(C(=O)O)cc2)[C@@H](C)CN([C@@H](C)CO)C(=O)c2cc(NC(=O)Nc3cccc4ccccc34)ccc2O1`, the cytotoxicity call was “inactive”. The same measure for `CN(C)Cc1cn(CC[C@H]2CC[C@H](N)[C@@H](CO)O2)nn1`: “inactive”; for `COCC#Cc1ccc([C@@H]2[C@@H](CO)N3C(=O)CN(C(=O)C4CCOCC4)C[C@@H]23)cc1`: “inactive”; for `CN1C(=O)c2cc(NC(=O)c3cnccn3)ccc2OC[C@H]2O[C@@H](CC(=O)N[C@H]3CCN(Cc4ccccc4)C3)CC[C@H]21`: “inactive”.

Regarding `CCS(=O)(=O)N1CCOC[C@]2(CN(c3cnn(C)c3)C(=O)CO2)C1`, the cytotoxicity call was “inactive”. In the case of `C[C@@H]1CCCCO[C@@H](CN(C)S(=O)(=O)c2ccc(Cl)cc2)[C@@H](C)CN([C@@H](C)CO)C(=O)c2cc(NC(=O)Nc3ccccc3)ccc2O1` it was “inactive”. Take `COc1ccc(CN(C)C[C@@H]2Oc3ccc(NS(C)(=O)=O)cc3CC(=O)N([C@@H](C)CO)C[C@@H]2C)cc1`: the cytotoxicity call is “inactive”. On to `O=C(CN1CCOCC1)NCC[C@H]1CC[C@H](NC(=O)Cc2ccccn2)[C@@H](CO)O1`, for which the cytotoxicity call was “inactive”. The same measure for `CO[C@@H]1CN(C)C(=O)c2ccc(NS(=O)(=O)c3cn(C)cn3)cc2OC[C@@H](C)N(CCC(F)(F)F)C[C@@H]1C`: “inactive”; for `C[C@@H]1CCCCO[C@H](CN(C)C(=O)C2CCCCC2)[C@@H](C)CN([C@@H](C)CO)C(=O)c2cc(NC(=O)Nc3ccccc3)ccc2O1`: “active”.
